From PubChem BioAssay AID686979 (National Center for Advancing Translational Sciences (NCATS), 2013)
Values joined by “and” are separate entries in the source; they are usually repeats but may differ in a detail not shown here. Identical values can stand only once. Out of some 420,000 compounds screened, about 50,000 (12%) were called active. This list was built around the results that the source calls inconclusive (neither active nor inactive); the mix of calls is not that of the screen. Calls come from the whole dose curve; as a rule, active = well fitted inhibition curve with a large enough effect; inconclusive = small, poorly fitted or top-dose-only effect; inactive = flat fitted curve, though single readings scatter. No potency is given beside an inconclusive call; the fits are too rough.

Experiment: qHTS for Inhibitors of human tyrosyl-DNA phosphodiesterase 1 (TDP1): qHTS in cells in presence of CPT; note: nearly all actives have a fitted effect of over 55% in size
Settings: chicken DT40 Tdp1-/-;hTDP1 cells + 20 nM CPT, ATP luminescence, 48 h; series mostly up to 46.2 µM
Summary of the method: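 Cell growth measured by CellTiter-Glo luminescence after a minimum 48 h, 37 C compound exposure with 20 nM CPT in Tdp1-knockout DT40 cells stably expressing hTDP1, seeded 400/well; qHTS titration format.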
Potency is the fitted concentration of half-maximal effect; tags give direction and shape of the fitted curve.

SMILES | Potency
O=C(NC1=NCCS1)c1cc(-c2cccnc2)nc2ccccc12 | active: 16.4 µM
Cc1ccc(CSc2nc3cccnc3n2Cc2ccc(C(=O)NCCc3cccs3)cc2)cc1 | active: 18.4 µM
CC(C)c1ccc(CN(C(=O)C2COc3ccccc3O2)C2CCS(=O)(=O)C2)cc1 (stereo not given) | inconclusive [inhibitor, single point]
Cc1ccn2cc(-c3cccc(NC(=O)c4cccs4)c3)nc2c1 | inconclusive [inhibitor, single point]
Cc1ccc(-c2noc(-c3nnn(CC(=O)Nc4cc(Cl)ccc4C)c3N)n2)cc1 | inactive
O=[N+]([O-])c1cc([N+](=O)[O-])c(Oc2ccc(Cl)c3cccnc23)cc1NN1CCCCC1 | inconclusive [inhibitor, single point]
Cc1cc(Br)cc(/C=N/NC(=O)c2ccc3c(c2)OCO3)c1O | active: 18.4 µM
CCOC(=O)c1ccccc1NC(=O)c1cccnc1 | inconclusive [inhibitor, partial curve]
CCN1C(=O)c2cccc3c(S(=O)(=O)Nc4ccc(OC)cc4OC)ccc1c23 | inconclusive [inhibitor, single point]
COc1ccc(CN2CCN(C(=O)c3cc(-c4cccnc4)nc4ccc(Cl)cc34)CC2)c(OC)c1OC | inconclusive [inhibitor, partial curve, poor fit]
O=C(CSc1nc2ccccc2c(=O)n1CC1CCCO1)NCc1ccccc1 (stereo not given) | inactive
CCC1CN(C(=O)C2CCN(S(=O)(=O)c3c(C)noc3/C=C/c3ccccc3F)CC2)c2cc(C)ccc2O1 (stereo not given) | inconclusive [inhibitor, single point]
Cc1cc(NC(=O)CSc2nc3ccccc3[nH]2)n(-c2ccccc2)n1 | inconclusive [inhibitor, single point]
OCCNc1nc(-c2ccccc2)c2cc(Br)ccc2n1 | inconclusive [inhibitor, single point]
COc1ccc(-c2nnc(SCc3cc(C)cc(C)c3)o2)cc1 | inconclusive [inhibitor, single point]
CN(C)c1ccc(C2C=Cc3ccccc32)c2ccccc12 (stereo not given) | inactive
COc1ccc(NC(=O)c2oc3ccccc3c2NC(=O)Cc2cccs2)c(OC)c1 | inconclusive [inhibitor, partial curve]
COc1ccc(CNC(=O)C(C)n2c(=O)cc(C)c3c(C)nn(-c4ccccc4)c32)cc1 (stereo not given) | inactive
CCOC(=O)N1CCN(C(=O)COc2cccc3c2CCN(CC)C3=O)CC1 | inactive
CCc1cccc(CC)c1NC(=O)COC(=O)CC1c2ccccc2CCN1S(=O)(=O)c1ccccc1 (stereo not given) | inconclusive [inhibitor, single point]
O=C(NCCCCc1ccccc1)C1CC(c2ccccc2[N+](=O)[O-])=NO1 (stereo not given) | inconclusive [inhibitor, single point]
CCc1cccc(CC)c1NC(=O)C(CC)Sc1nc2ccsc2c(=O)n1CCC(=O)O (stereo not given) | inconclusive [inhibitor, single point]

SMILES | Potency
COc1ccc(Cl)cc1Nc1nc(C)nc2c1oc1ccccc12 | inconclusive [inhibitor, single point]
COc1cccc(NC(=O)CN(C)CC(=O)c2c(C)[nH]c3ccccc23)c1 | inconclusive [inhibitor, single point]
CSCCC(NC(=O)c1ccccc1Cl)C(=O)Nc1ccc(C)c(S(=O)(=O)N2CCOCC2)c1 (stereo not given) | inconclusive [inhibitor, single point]
O=C(CSc1nnc(-c2ccco2)n1Cc1ccccc1)NC(=O)NCc1ccccc1 | inconclusive [inhibitor, single point]
CCN1CCN(c2cc(C)c3cc(NC(=O)c4ccc(OC)c(OC)c4)ccc3n2)CC1 | active: 16.4 µM and active: 14.6 µM
CCOc1ccc(-c2nnc(-c3ccncc3)o2)cc1OCC | inactive
CCc1cccc(NC(=O)C2CCN(S(=O)(=O)c3cccc(-c4noc(C)n4)c3)CC2)c1 | inconclusive [inhibitor, single point]
Cc1nc2c(c(C)nn2-c2ccccc2)c(C)c1CCC(=O)NCc1ccccc1 | inconclusive [inhibitor, single point]
CCCCn1c(=NC(=O)c2ccco2)c(C(=O)OCC)cc2c(=O)n3cccc(C)c3nc21 | inconclusive [inhibitor, single point]
C/C=C/COC(=O)C1=C(C)NC(=O)NC1c1ccc2c(c1)OCO2 (stereo not given) | inactive
CC(=O)c1cccc(NC(=O)c2nc(-c3ccccc3)n(-c3ccccc3C)n2)c1 | active: 25.9 µM
COc1ccc(C)cc1Nc1nc(N)c2cc(OC)c(OC)cc2n1 | active: 4.61 µM
COc1ccc(C2c3cccn3CCN2S(=O)(=O)c2ccc([N+](=O)[O-])cc2)cc1 (stereo not given) | inconclusive [inhibitor, single point]
O=C(Cc1cccc(NC(=O)C2CCN(C(=O)CCc3ccccc3)CC2)c1)Nc1cccc(C(=O)N2CCCC2)c1 | inconclusive [inhibitor, single point]
N#Cc1ccc(-c2ccc(OCC(=O)NN=Cc3ccncc3)cc2)cc1 | inconclusive [inhibitor, single point]
Cc1cc2cc3c(cc2nc1SCC(=O)O)OCCO3 | inactive
CCN1CCN(S(=O)(=O)c2ccc(Cl)c(C(=O)N(C)Cc3ccccc3)c2)CC1 | inconclusive [inhibitor, single point]
O=C(NCC1CCN(c2ccc(S(=O)(=O)N3CCOCC3)cc2)CC1)Nc1ccccc1 | inconclusive [inhibitor, partial curve]
C=CCNC(=O)C1CCC(=O)N1S(=O)(=O)c1ccc(C)cc1 (stereo not given) | inactive
CCN1CCN(Cc2c(O)ccc3cc(-c4ccc(OC)cc4)c(=O)oc23)CC1 | inconclusive [inhibitor, single point]
COc1ccc(-c2ccc3c(c2)C2CC3CCN2S(=O)(=O)c2ccccc2C)cc1 (stereo not given) | inconclusive [inhibitor, single point]
Clc1cccc(CNc2ncnc3nc[nH]c23)c1 | inconclusive [inhibitor, single point]

SMILES | Potency
O=C(Nc1ccc(Cl)c(Cl)c1)c1csc(-c2ccccc2)n1 | inconclusive [inhibitor, partial curve]
CCN(CC)CC(O)CN1c2ccccc2Sc2ccccc21 (stereo not given) | inconclusive [inhibitor, single point]
CC(=O)Nc1ccc(NC(=O)CSc2nc(N)c(NC(=O)c3ccco3)c(=O)[nH]2)cc1 | inconclusive [inhibitor, partial curve]
O=C(Nc1ccc(F)cc1)c1nc[nH]c1C(=O)Nc1ccccc1[N+](=O)[O-] | inconclusive [inhibitor, partial curve]
Cc1cc(C)c(NC(=O)Cn2c(=O)n(Cc3ccc(C(=O)NCc4ccco4)cc3)c(=O)c3sccc32)c(C)c1 | inconclusive [inhibitor, single point]
COc1ccc2[nH]c3c(c2c1)CCN1C(=O)C(CC(=O)NC(C)(C)C)C[C@H](C(=O)N(C(C)C)C(C)C)[C@@]31C (stereo not given in full) | inconclusive [inhibitor, single point]
Cc1ccc(S(=O)(=O)c2nc(-c3cccc(Cl)c3)oc2NCc2ccccc2)cc1 | inactive
CCCc1cc(=O)oc2cc(OCC(=O)NC3CCN(Cc4ccccc4)CC3)ccc12 | inactive
COCCN(C)C(=O)CC1C(=O)NCCN1CC(c1ccccc1)c1ccccc1 (stereo not given) | inactive
COc1ccc(C(=O)N2CCN(c3nc4cc(C)cc(C)c4cc3C#N)CC2)cc1 | inconclusive [inhibitor, single point]
c1ccc(-c2cc3c(N4CCN(c5ccccc5)CC4)ncnc3s2)cc1 | inconclusive [inhibitor, single point]
Cc1nnc(N2CCCC(C(=O)NCCc3ccccc3)C2)c2nn(-c3ccccc3)c(C)c12 (stereo not given) | inconclusive [inhibitor, single point]
COc1ccc(N2CCN(C(=O)CCS(=O)(=O)c3ccc4c(c3)CCN4C(=O)C3CC3)CC2)cc1 | inconclusive [inhibitor, partial curve, poor fit]
CCOc1ccc(CCN2C(=O)C(=O)N([C@@H](CC(C)C)CN3CCC[C@H]3CN3C(=O)C(=O)NC[C@@H]3CC(C)C)C[C@@H]2CC(C)C)cc1 | inconclusive [inhibitor, single point]
CC1(C)CN=c2s/c(=C\c3ccc(Cl)cc3)c(=O)n2C1 | active: 11.6 µM
N#CC(C#N)=Cc1c[nH]c(=O)c(C#N)c1Nc1ccccc1 | inactive
CC(C)C[C@H]1COc2cc(N(C)CCO)ccc2S(=O)(=O)N1 | inactive
O=C(Cn1c2ccccc2c2nc3n(c(=O)c21)CCCS3)Nc1ccccc1 | active: 13 µM
O=C(CNS(=O)(=O)c1ccccc1)OCC(=O)c1c[nH]c2ccccc12 | inactive
CCn1c(=O)cc(NC2=NCC(C)CN2c2cccc(Cl)c2)n(C)c1=O (stereo not given) | inconclusive [inhibitor, single point]
COc1ccc(Cl)cc1NC(=O)c1cccc(N2C(=O)C3CC=CCC3C2=O)c1 (stereo not given) | inconclusive [inhibitor, partial curve]
